Article PMC4336329 (PLoS ONE, 2015)
Hit rate of the full screen: of about 310,000 compounds, about 14,000 (4.5%) showed an effect of 50% or more. Effects have a minus sign here. Some of the results follow.

target: human ether-à-go-go-related gene (hERG) potassium channel (human, UniProt Q12809); test: primary screen, population patch clamp on CHO cells stably expressing hERG
Procedure: Briefly, Chinese hamster ovary (CHO) cells stably expressing the hERG channel were dislodged from tissue culture flasks and dispensed into PPC plates. […] During the recording, background leak currents were estimated by a 100 ms step to -80 mV from an initial holding potential of -70 mV and subtracted from the subsequent current measurement. The campaign was conducted in two phases using slight differences in recording protocol. In the first phase, the initial voltage pulse used a 100 ms step to -30 mV from a holding potential of -70 mV, a 2 s conditioning step to +25 mV, and a 2 s test step to -30 mV. During the second phase of the screen, the potential during the conditioning step was raised to +45 mV. In both phases of the campaign, a secondary voltage pulse was applied using the same parameters as the second phase initial pulse. The initial and secondary pulses were applied in the absence of compound, and upon application of 1 μM and 10 μM test concentrations. […]
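Note: peak tail current of the secondary pulse compared with the same well before compound.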

Chain of human ether-à-go-go-related gene (hERG) potassium channel (Q12809 whole entry, looked up): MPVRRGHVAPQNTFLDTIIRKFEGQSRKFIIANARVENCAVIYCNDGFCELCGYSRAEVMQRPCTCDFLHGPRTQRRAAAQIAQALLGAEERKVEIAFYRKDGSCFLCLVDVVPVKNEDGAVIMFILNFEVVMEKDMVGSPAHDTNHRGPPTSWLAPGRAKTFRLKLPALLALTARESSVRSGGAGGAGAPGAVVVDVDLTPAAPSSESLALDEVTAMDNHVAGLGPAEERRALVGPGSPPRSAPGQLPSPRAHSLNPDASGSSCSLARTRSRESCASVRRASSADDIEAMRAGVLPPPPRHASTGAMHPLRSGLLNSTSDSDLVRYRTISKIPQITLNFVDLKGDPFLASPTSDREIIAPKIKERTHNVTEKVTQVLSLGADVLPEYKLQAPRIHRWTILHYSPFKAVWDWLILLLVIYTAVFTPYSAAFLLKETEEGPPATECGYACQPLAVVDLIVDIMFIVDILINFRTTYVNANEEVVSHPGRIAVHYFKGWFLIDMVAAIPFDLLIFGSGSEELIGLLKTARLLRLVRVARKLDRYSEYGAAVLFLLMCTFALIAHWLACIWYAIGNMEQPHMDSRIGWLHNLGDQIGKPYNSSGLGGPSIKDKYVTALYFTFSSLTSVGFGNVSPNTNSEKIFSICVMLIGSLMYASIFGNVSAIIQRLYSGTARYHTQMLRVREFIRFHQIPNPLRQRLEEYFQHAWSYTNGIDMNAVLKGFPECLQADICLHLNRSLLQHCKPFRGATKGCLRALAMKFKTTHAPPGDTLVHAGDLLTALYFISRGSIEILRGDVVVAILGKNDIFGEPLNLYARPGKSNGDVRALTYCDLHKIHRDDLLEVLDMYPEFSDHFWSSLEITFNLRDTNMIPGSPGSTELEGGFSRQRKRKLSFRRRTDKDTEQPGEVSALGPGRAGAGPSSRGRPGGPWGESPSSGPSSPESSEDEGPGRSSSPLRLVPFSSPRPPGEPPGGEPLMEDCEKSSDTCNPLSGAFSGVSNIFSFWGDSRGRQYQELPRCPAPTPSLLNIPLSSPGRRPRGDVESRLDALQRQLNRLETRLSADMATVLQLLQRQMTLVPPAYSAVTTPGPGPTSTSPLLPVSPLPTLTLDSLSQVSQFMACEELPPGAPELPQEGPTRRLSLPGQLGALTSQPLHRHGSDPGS

SMILES | hERG current change (%, negative = inhibition) at 10uM [%]
Cc1cc(-c2cccnc2)c(C#N)c(SCc2cccc(F)c2)n1 | 3.46
Cc1nc2ccccn2c1-c1csc(Nc2ccc(C(=O)O)cc2)n1 | 17.1
CCn1c(N2CCN(CC(=O)Nc3cccc(C)c3C)CC2)nc2ccccc21 | -63.6
Cc1[nH]c(=O)nc2c1CCC2 | 24.3
Cn1c(CN2CCCC2)c(C#N)c2ccccc21 | -12.1
Cl.Clc1ccccc1CSc1nnc([C@@H]2CCCN2)o1 | 15.1
Cn1c(Cn2c(=O)sc3ccccc32)nnc1SCC(=O)Nc1ccccc1F | 2.9
COc1ccc(N2CCN(C(=O)C3(C)CC3(Cl)Cl)CC2)cc1 (centres unmarked) | 2.66
COc1ccc(CNC(=O)[C@H](C)NC(=O)C2CCN(S(=O)(=O)c3ccccc3)CC2)cc1 | 10.4
COc1ccc(S(=O)(=O)NCC2CCCN(C(=O)C=C(C)C)C2)cc1 (centres unmarked) | 22.2
CCOC(=O)C(=O)CC(=O)c1ccc2c(c1)OCCO2 | -0.0539
CC(/C=C/c1ccc(Cl)o1)=C\C(=O)O | 5.67
Cc1cc(C(=O)COC(=O)c2ccc[nH]c2=O)c(C)n1-c1ccc(F)cc1 | 4.8
CC1CN(CCOc2ccc(Cl)cc2Cl)CC(C)O1.O=C(O)C(=O)O (centres unmarked) | -24.6
COc1ccc(CCN2C(=O)CSC2c2ccc(F)cc2)cc1 (centres unmarked) | 7.65
CC(C)(C)c1csc(Sc2ncccc2[N+](=O)[O-])n1 | 9.28
COc1ccc(C(C#N)CCC2OCCO2)cc1OC (centres unmarked) | -11.6
Cc1ccc(S(=O)(=O)Nc2nc(CN3CCOCC3)nc3sc(C)c(C)c23)cc1 | -43
CCOC(=O)C(CC)n1cnc2c(nnn2-c2ccc(F)cc2)c1=O (centres unmarked) | -25.6
O=C(CSc1nnnn1-c1cccc2ccccc12)NC(C(=O)O)(c1ccccc1)c1ccccc1 | 19.7
O=C(CC1SC(=O)N(c2ccccc2)C1=O)Nc1ccc(Cl)cc1 (centres unmarked) | 13.9
COc1ccc(S(=O)(=O)NNC(=O)Nc2ccc(C)cc2C)c(OC)c1 | -1.37
N#Cc1ccccc1COc1cccc2c1CCCC2O (centres unmarked) | 21

SMILES | hERG current change (%, negative = inhibition) at 10uM [%]
CCC12CN(C(=O)c3ccc(OC)cc3)CC(CC)(CN(C(=O)c3ccc(OC)cc3)C1)C2=O | 3.45
Cc1cc(C(=O)CCC(=O)NC(C)c2ccc(S(N)(=O)=O)cc2)c(C)s1 (centres unmarked) | -5.29
Cc1n[nH]c(=O)c2c(NC(=O)CSc3nnnn3-c3ccccc3)oc(C)c12 | -21
COc1ccccc1CN(C(=O)CCl)C(C(=O)NC1CCCCC1)c1ccncc1 (centres unmarked) | -1.23
c1ccc(-c2nc3ccccn3c2NC2CCCC2)nc1 | -26.9
CN(C)CCSc1nnc(-c2ccccc2)o1.Cl | -8.57
O=C(/C=C/c1ccc(Cl)cc1Cl)NCc1ccncc1 | -2.87
Cn1c(SCC(=O)Nc2sccc2C(N)=O)nnc1-c1ccncc1 | -4.85
CC(C)CC(=O)Nc1ccc2c(c1)nc(CCN1CCOCC1)n2C | 27.4
CC(C)C(=O)Nc1ccccc1C(=O)N/N=C/c1ccc([N+](=O)[O-])cc1 | 5.6
O=C(O)CCC(=O)NN1C(=O)c2ccccc2NC1c1ccc(F)cc1 (centres unmarked) | -2.7
CC(=O)c1ccc(S(=O)(=O)N2CCCCC2C(=O)O)cc1 (centres unmarked) | 14.8
CC(C)C(=O)N1CCN(c2ccccc2NC(=O)c2cc([N+](=O)[O-])ccc2N2CCOCC2)CC1 | -67.2
Cc1ccc(Cn2ncc3c(N4CCN(C)CC4)ncnc32)cc1 | -7.67
Cc1cc(NC(=O)CSc2nnc(-c3ccncc3)n2-c2ccc(F)cc2)no1 | -3.61
O=C(Nc1ccccc1C(=O)N1CCOCC1)c1ccc(Cl)cc1 | -15.1
Cc1cc(NC(=O)CN2CCC(C)CC2)no1.O=C(O)C(=O)O | 20.6
O=C1NC(=O)c2cc3ccccc3cc21 | -18.2
O=C(Nc1cccc2c1CCCC2)c1ccccc1Br | 16
COc1ccc(CCNC(=O)CSc2ncc(C(=O)Nc3ccccc3)c(=O)n2C)cc1 | -18.5
CCNC(=O)NC(=O)COC(=O)CCCSc1nc2ccccc2[nH]1 | 3.65
CCOC(=O)c1cc2c3ccccc3n(CC)c2nc1N | 7.25
CCn1cc(C(=O)N[C@H](C(=O)O)C(C)C)c(=O)c2cc3c(cc21)OCO3 | 5.6

SMILES | hERG current change (%, negative = inhibition) at 10uM [%]
COc1cccc(-c2csc3nnc(SCC(=O)c4ccc(NC(C)=O)cc4)n23)c1 | 4.79
O=C(CN1CCN(c2ccccn2)CC1)Nc1cccc(S(=O)(=O)N2CCCC2)c1 | 12.4
CCN(CC)C(=O)Cn1cnc2ccccc2c1=O | -2.77
COc1ccc2[nH]cc(CCNC(=S)NCCc3ccccc3)c2c1 | 2.94
Cc1cc(-c2ccc(C(C)C)c(S(=O)(=O)N3CCN(c4ccccn4)CC3)c2)on1 | 2.81
CCN(CC(=O)NC(C)C)C(=O)C(CCSC)NC(=O)c1ccccc1OC (centres unmarked) | 22.1
O=c1c2ccccc2nc(SCc2nnc(-c3ccccc3)o2)n1-c1ccc(F)cc1F | 19.4
COc1ccccc1NC(=O)C1CCCN(C(=O)NCc2ccccc2)C1 (centres unmarked) | 0.779
Cc1ccc(NCC(=O)N/N=C/c2cccn2C)cc1 | 6.12
O=S(=O)(Nc1ccc(Cc2ccncc2)cc1)c1ccc(Cl)s1 | 4.65
Cc1cc(C(=O)OCC(=O)Nc2nnc(C(C)C)s2)c2ccccc2n1 | 0.403
COc1ccccc1NC(=O)c1ccc2c(c1)nnn2C | 21.2
CCOc1ccc(C(=O)CCC(=O)Nc2cccc(S(=O)(=O)N3CCCCC3)c2)cc1 | -7.42
CCONC(=O)Nc1ccccc1[N+](=O)[O-] | 4.9
Cc1ccc(S(=O)(=O)n2ccc3cccnc32)cc1 | 4.2
Cn1c(SCC(=O)OC2CCCCC2)nnc1-c1ccc2c(c1)OCO2 | -19.7
COC(=O)c1ccc(CSc2nc3ccc(S(=O)(=O)N4CCOCC4)cc3[nH]2)cc1 | -10.8
O=C(N/N=C/c1ccc(Br)s1)c1cccc([N+](=O)[O-])c1 | 12.2
COc1ccc(-c2ccc(SCC(=O)NC3CCCCC3)nn2)cc1OC | 16.4
CCOC(=O)N1CCN(C(=O)c2ccc(N3C(=O)CCC3=O)cc2)CC1 | -8.83
COc1ccc(OC)c(C2=NOC(C(=O)NCCN3CCOCC3)C2)c1 (centres unmarked) | -0.364
COc1ccc(CCNC(=O)C2CCN(S(=O)(=O)c3ccc(NC(C)=O)cc3)CC2)cc1OC | 9.83
CNC(=O)c1ccc(NC(=O)CN2c3cccc4cccc(c34)S2(=O)=O)cc1 | 4.69

SMILES | hERG current change (%, negative = inhibition) at 10uM [%]
CC(C)CN(CCCNC(=O)CN1C(=O)COc2ccc(S(=O)(=O)N3CCCC3)cc21)CC(C)C | -5.33
Cc1ncc(C[n+]2csc(CCOC(=O)CC34CC5CC(CC(C5)C3)C4)c2C)c(N)n1.Cl.[Cl-] | -4.79
O=C(O)CSc1nnc(-c2ccc(Cl)cc2Cl)n1-c1ccccc1 | 18.7
CC(C)N1CC(C(=O)O)CC1=O (centres unmarked) | 19
Cc1ccc(-c2csc(NC(=O)COC(=O)c3cccc(S(=O)(=O)N4CCOCC4)c3)n2)cc1 | 11.4
COc1ccc(CNc2ccc3c(c2)CCC3)cc1Br | 35.4
Cc1cc(N2C(=O)C(O)=C(C(=O)c3cccs3)C2c2cccc(O)c2)no1 (centres unmarked) | 14.6
COc1ccccc1C(=O)NNc1ncc(C)s1.Cl | -0.745
CC(=O)Nc1cc(C(F)(F)F)ccc1Oc1cccc(Br)c1 | -48.2
CCCc1nnc(SCC(=O)N2CCOCC2)n1CC1CCCO1 (centres unmarked) | 23.6
Clc1ccc2c(NNc3ccccc3Cl)ccnc2c1 | 7.9
CN(C(=O)c1ccc(NC(=O)Cc2cccc(NC(=O)C3CCCN(C(=O)C4CCC4)C3)c2)cc1)C1CCCC1 (centres unmarked) | -8.89
Cc1c(NC(=S)NC(=O)c2sc3ccccc3c2Cl)cccc1C(=O)O | -7.69
COc1cccc(CNC(=O)c2ccc(Cl)c(S(=O)(=O)N3CCOCC3)c2)c1 | -19.5
C=CCNC(=S)N1CCN(c2ccccc2Cl)CC1 | -6.87
Clc1ccc(-c2nnc(C34CC5CC(CC(C5)C3)C4)o2)cn1 | -7.73
Cc1ccc(NS(=O)(=O)c2ccc(OCC(=O)N3CCN(C)CC3)cc2)cc1 | 4.6
CC(CCc1ccccc1)NC(=O)/C=C/c1ccc(Cl)cc1 (centres unmarked) | -17.8
CC(C)(C)CN1CCC(n2nccc2NC(=O)c2ccccc2Cl)CC1 | -20.3
CCOC(=O)C1(CC2CC2)CCN(Cc2ccc(OC)cc2F)CC1 | -73.5
